Measured values reported in ChEMBL document CHEMBL1201862, “PubChem BioAssay data set” (2004).

tested on: NCI-H322M; experiment: inhibition of tumour cell growth, NCI panel, 48 h

| SMILES | GI50 |
| --- | --- |
| O=C(O)c1cc(CCc2cc(O)ccc2O)ccc1O | inactive: > 100 µM |
| N#C/C(=C(\O)C(=O)O)c1ccc(-c2cccc3ccccc23)cc1 | inactive: > 100 µM |
| c1cc(CSc2ncnc3[nH]cnc23)ccn1 | inactive: > 100 µM |
| CC1=C(O)C(=O)c2ccccc2C1=O | inactive: 97.5 µM |
| Cc1cnc2sn(-c3ccc([N+](=O)[O-])cc3)c(=O)c2c1 | inactive: > 100 µM |
| O=C(O)c1ccc2c(O)c(O)ccc2c1 | inactive: 22.8 µM |
| COC(=O)/C=C1/OC(c2ccccc2)=CC1=O | inactive: 35 µM |
| CC(C)=NN/C(=N\c1ccc(Cl)cc1)NS(=O)(=O)c1ccc(C)cc1 | inactive: > 100 µM |
| Cc1cc2c(cc1Cl)SC(NNc1ccc([N+](=O)[O-])cc1)=NS2(=O)=O | inactive: > 10 µM |
| C[C@]12CC[C@H]3[C@@H](CCC4=C(Br)C(=O)C=C[C@@]43O)[C@@H]1CCC2=O | inactive: 95.1 µM |
| Oc1ccc2ccccc2c1CN(Cc1c(O)ccc2ccccc12)C1CCCCC1 | inactive: 29.6 µM |
| c1csc(-c2cc(-c3ccsc3)c(-c3cccs3)s2)c1 | inactive: 48.6 µM |
| N#Cc1c(SCc2ccccc2)nc(-c2ccccc2)[nH]c1=S | inactive: 28.1 µM |
| CCCC(=O)OC(OC(=O)CCC)c1ccc([N+](=O)[O-])o1 | inactive: > 100 µM |
| NC(=O)/N=C1\NC(Cc2ccccc2)C(=O)N1Cc1ccccc1 (stereo unspecified) | inactive: > 100 µM |
| C[C@]12CC[C@H]3[C@@H](CCC4=C/C(=N/OCCN5CCCCC5)CC[C@@]43C)[C@@H]1CC[C@@H]2O | inactive: 20.3 µM |
| C1CC2CN(CCCN3CCOCC3)C(C1)O2 (stereo unspecified) | inactive: > 100 µM |
| CC1OC(O[C@H]2C3C=CO[C@@H](OC4OC(CO)C(O)C(O)C4O)C3[C@@]3(COC(=O)/C=C/c4ccccc4)O[C@@H]23)C(O)C(O)C1O (stereo partly specified) | inactive: > 100 µM |
| CCOC(=O)N1CCC2(CC1)C[C@](C)(C(C)=O)C(C)O2 (stereo partly specified) | inactive: > 100 µM |
| CC(C)(C)OC(=O)NCC(=O)NC1c2ccsc2/C(=N/O)[C@H]1O (stereo partly specified) | inactive: > 100 µM |
| CCOc1cc(NC(C)=O)ccc1C(=O)NN1C(=O)C(Oc2ccccc2)C1c1ccc(O)c(OC)c1 (stereo unspecified) | inactive: > 100 µM |
| Nc1nc2c(c(=O)[nH]1)C(c1ccc(Cl)cc1)C=C(c1ccccc1)N2 (stereo unspecified) | inactive: 37.2 µM |
| O=[N+]([O-])c1cc2ccc(N(CCO)CCO)nc2nc1N(CCO)CCO | inactive: > 100 µM |
| CCC1CN2CCc3cc(OC)c(OC)cc3C2CC1CC1c2cc(OC)c(OC)cc2CCN1C(=O)C1CCCN1C(=O)OCc1ccccc1 (stereo unspecified) | inactive: 22.5 µM |

| SMILES | GI50 |
| --- | --- |
| CCOC(=O)NNC(=O)NCCNC(=O)NNC(=O)OCC | inactive: > 100 µM |
| CC[C@H](C)c1occ2c(O)c(C(=O)O)c(=O)cc-2c1C | inactive: 24.5 µM |
| NCCNCC(O)CO (stereo unspecified) | inactive: > 100 µM |
| O=C1CNc2cc(N3CCN(c4ccccc4)CC3)ccc2N1 | inactive: > 100 µM |
| Nc1nc(N)c2nnn(C[C@H]3CC[C@@H](CO)C3)c2n1 | inactive: > 100 µM |
| COc1c(O)c2ccccc2c2cc(O)ccc12 | inactive: 14.7 µM |
| CCCCCC(=O)Nc1[nH]nnc1C#N | inactive: > 100 µM |
| Cc1nc2ccccc2c(=O)n1Nc1ccc(C(=O)O)cc1 | inactive: > 100 µM |
| CCCOCN1COCN/C1=N\C#N | inactive: > 100 µM |
| O=C(O)c1cc2ccccc2c2c1C(=O)c1ccccc1-2 | inactive: 78 µM |
| CC1(c2ccccc2Cl)C(C#N)C(=O)NC(=O)C1C#N (stereo unspecified) | inactive: > 100 µM |
| COC(=O)C(C(=O)C(=O)Nc1nc2ccc(OC)cc2s1)c1cnc2ccccc2n1 (stereo unspecified) | inactive: > 100 µM |
| COc1ccc(CCNC(=O)Cc2cc(OC)c(OC)cc2CO)cc1OC | inactive: > 100 µM |
| N=C(N)N/N=C\c1c(-c2cccc([N+](=O)[O-])c2)nc2sc(Cl)cn12 | inactive: 2.16 µM |
| N#Cc1ccc(Oc2nc3ccccc3nc2-c2ccccc2)cc1 | inactive: > 100 µM |
| Cn1c(S)nnc1-c1csc(-c2ccc(Cl)cc2)n1 | inactive: 33.2 µM |
| CC(C)(C)C(C#N)(C#N)c1ccc(C(C#N)(C#N)C(C)(C)C)nn1 | inactive: > 100 µM |
| Cc1[nH]nc(C(=O)N/N=C/c2cccs2)c1/N=N\N(C)C | inactive: 38.5 µM |
| C=CCOCCCCC(C(C)=O)C(=O)OC (stereo unspecified) | inactive: > 100 µM |
| Cc1ccc(NC2=NCCO2)c2c1CCC2 | inactive: 52.4 µM |
| N=C(N)SCc1ccc2c(c1)S(=O)(=O)c1ccccc1O2 | inactive: 20.9 µM |
| O=C1NN(c2ccccc2)C(=O)C2C3c4ccccc4C(c4ccccc43)C12 (stereo unspecified) | inactive: > 100 µM |
| Cc1ccc(S(=O)OCc2c(C)c(C)c(COS(=O)c3ccc(C)cc3)c(C)c2C)cc1 (stereo unspecified) | inactive: > 100 µM |
| COC1=CC(=O)C(O)=C(CC2(C)C(C)CCC3(C)C2CCCC3(C)C)C1=O (stereo unspecified) | inactive: 6.47 µM |

| SMILES | GI50 |
| --- | --- |
| c1ccc(C(OCCN2CC3CCC(C2)N3)c2ccccc2)cc1 | inactive: 78.7 µM |
| Cc1ccc(/C=C2/N/C(=N\N=C/C(O)C(O)C(O)CO)NC2=O)cc1 (stereo unspecified) | inactive: > 100 µM |
| CC1=Nc2c(C#N)ncn2N=C(C)C1 | inactive: > 100 µM |
| CCOC(=O)CC1(c2cccc3ccccc23)OC(=O)c2ccccc21 (stereo unspecified) | inactive: > 100 µM |
| CCOC(=O)c1csc(NC(=O)CCN2CCN(C)CC2)n1 | inactive: > 100 µM |
| COC(=O)[C@@H]1[C@@H](c2cccc(Cl)c2)[C@H](C(=O)OC)C2(C[C@@]1(C)O)NCCS2 (stereo partly specified) | inactive: > 100 µM |
| COC[C@H](Cc1ccccc1)/N=C/c1ccccc1 | inactive: > 100 µM |
| C[C@@H]1OC(=O)C[C@H]2CC(=O)N(CCC3CN(C(=O)c4ccccc4)c4ccccc43)C[C@@H]21 (stereo partly specified) | inactive: > 100 µM |
| C[C@@]1(CCCCCCCCCCc2ccccc2)C[C@@]2(C)OC(=O)C[C@H]2OO1 | inactive: 2.47 µM |
| O=C(/C=C/c1ccc(OCc2ccccc2)cc1)NCc1ccc(C(=O)NCCc2ccccc2)cc1 | inactive: > 100 µM |
| CN(CCO)/N=N/c1n[nH]cc1C(N)=O | inactive: > 100 µM |
| CCCCSC1=N/C(=C\c2ccc(N(C)C)cc2)C(Cl)=N1 | inactive: > 100 µM |
| Cc1nc(C(N)=S)sc1C(=O)/C=C/c1cccc(O)c1 | inactive: > 100 µM |
| O=C(NCCCCl)c1c(O)c2ccccc2[nH]c1=O | inactive: > 100 µM |
| CC(=O)C(=[N+]=[N-])C(=O)N(C)CCC#N | inactive: > 10 µM |
| O=C(CSc1nc2ccc(I)cc2c(=O)n1Cc1ccccc1)NN1C(=O)c2ccccc2C1=O | inactive: 15.7 µM |
| COC1=NCc2ccccc2-c2ccccc21 | inactive: > 100 µM |
| CCOC(=O)CCC(NC(=O)c1ccc(Nc2nc3ccccc3n3cccc23)cc1)C(=O)OCC (stereo unspecified) | inactive: 11 µM |
| O=C(Nc1ccccc1)Oc1ccc(C(=S)Nc2ccc(Br)cc2)cc1 | inactive: 19.7 µM |
| COC(=O)C1=C(C)N(NC(=O)Nc2ccccc2)C2(N)N(NC(=O)Nc3ccccc3)C(C)=C(C(=O)OC)C12C(=O)OC (stereo unspecified) | inactive: 57.1 µM |
| O=C1C(=O)N(c2cccc(C(F)(F)F)c2)C(=O)C(=O)C1c1nc2ccccc2s1 | inactive: > 100 µM |
| CC(C)=CCc1c(O)c(CC=C(C)C)c2oc(-c3ccc(O)cc3O)c(CC=C(C)C)c(=O)c2c1O | inactive: 12.8 µM |
| O=[N+]([O-])c1cccc2nc3ccccc3c(NCCCCCNc3c4ccccc4nc4cccc([N+](=O)[O-])c34)c12 | active: 0.112 µM |
| NCCSS(=O)(=O)CCN | inactive: > 100 µM |

| SMILES | GI50 |
| --- | --- |
| Cc1ccc(S(=O)(=O)N2CCN(CCO)CCN(S(=O)(=O)c3ccc(C)cc3)CCN(CCO)CC2)cc1 | inactive: 14.7 µM |
| CC(=O)OC1CC2CCC1(C)C2(C)C (stereo unspecified) | inactive: > 100 µM |
| CC(C)(C)c1cc2c3c(c1)c(=O)c1cccc4c(O)c5cccc(c2=O)c5c-3c41 | inactive: 50 µM |
| NC(CSCc1ccc(I)cc1)C(=O)O (stereo unspecified) | inactive: 80.4 µM |
| COC(=O)C1=C(C(=O)OC)SC(=C2SC3=C(SC(=C4SCCS4)S3)S2)S1 | inactive: > 100 µM |
| COc1cccc(C2c3cc4c(cc3OC(NNc3ccccc3)C2C)OCO4)c1OC (stereo unspecified) | inactive: 13.9 µM |
| COC(=O)c1ccc2n1C1CC3CC(CC2C3)C1 | inactive: > 100 µM |
| Cc1c(C(=O)CSc2nc3cc([N+](=O)[O-])ccc3[nH]2)c(=O)n(-c2ccccc2)n1C | inactive: > 100 µM |
| COc1cc(/C=C/C(=O)c2sc(NNC(C)=O)nc2C)ccc1O | inactive: > 100 µM |
| C1CCN(c2nc(=[N+]3CCCCC3)ss2)CC1 | inactive: > 100 µM |
| O=C(Nc1ccc(N2C(=O)CSC2c2cccs2)cc1)c1ccc(N2C(=O)CSC2c2cccs2)cc1 (stereo unspecified) | inactive: > 100 µM |
| O=C1C=CC(=O)c2c(NCC3CC3)ccc(NCC3CC3)c21 | inactive: > 100 µM |
| Cc1cccc(C)c1NC(=O)C(=O)C(C#N)c1ccccc1Cl (stereo unspecified) | inactive: > 100 µM |
| COc1ccc(Cc2cc(Cc3ccc(OC)cc3)cc(Cc3ccc(OC)cc3)c2)cc1 | inactive: > 100 µM |
| CN1C(c2ccccc2)CC(=O)C(N)C1c1ccccc1 (stereo unspecified) | inactive: 44.7 µM |
| O=C(O)Cc1cccc2c(=O)c3cccc([N+](=O)[O-])c3oc12 | inactive: > 100 µM |
| Cc1cc(S(=O)(=O)O)ccc1/N=N/c1ccc(/N=N/c2c(O)ccc3ccccc23)c(C)c1 | inactive: > 100 µM |
| COC(=O)[C@@]12OC[C@]34C([C@@H](O)C1O)[C@@]1(C)CC(=O)C(O)=C(C)C1C[C@H]3OC(=O)[C@H](OC(=O)CC(C)C(F)(F)F)[C@H]42 (stereo partly specified) | active: 0.401 µM |
| CC1=C[C@H](C[C@]2(C)c3c(c4c(C)cccc4oc3=O)O[C@@H]2C)OC1=O | inactive: > 100 µM |
| COc1cc(C2c3cc4c(cc3[C@@H](Nc3ccc5c(c3)OCO5)C3COC(=O)[C@H]23)OCO4)cc(OC)c1O (stereo partly specified) | inactive: 5.24 µM |
| CCOC(=O)c1cn2c(ccc3sc4ccccc4c(=O)c32)n1 | inactive: 39.4 µM |
| O=c1c2cc(I)ccc2nc(-c2cccs2)n1Nc1ccccc1 | active: 0.805 µM |
| COc1c(O)cc(C(=O)O[C@@H]2Cc3c(O)cc(O)cc3O[C@@H]2c2cc(O)c(O)c(O)c2)cc1O | inactive: 25.7 µM |
| COc1ccc(C2Cc3cc(OC)c(OC)c(OC)c3C2)cc1 (stereo unspecified) | inactive: 37.2 µM |

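Interpolation was linear, between the two tested concentrations surrounding the appropriate level; five concentrations were tested over 48 hours in 96-well plates. Here, GI50 denotes the concentration required for 50% inhibition of growth.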 The source made the active and inactive calls. Cut-off read from the data, not from the text of the source: active = GI50 up to about 1.1 µM and inactive = higher.
